Where “and” joins values, the source holds several entries; their conditions need not be identical. Equal values may be shown once. The campaign covered roughly 270,000 compounds. About 5,800 (2.1%) were called active. Roughly 16% stayed inconclusive and do not appear here. Calls come from the whole dose curve; as a rule, active = well fitted inhibition curve with a large enough effect; inconclusive = small, poorly fitted or top-dose-only effect; inactive = flat fitted curve, though single readings scatter. Only a part is listed here, and it is no random draw.
% is set by controls: 0 for no effect and ±100 for the full control effect; potency is the fitted concentration of half-maximal effect.

This test concerns the target Microtubule-associated protein tau (Homo sapiens) (UniProt P10636). Put plainly: qHTS for Inhibitors of Tau Fibril Formation, Thioflavin T Binding. Note: nearly all actives have a fitted effect of over 55% in size. The following applies: recombinant tau K18 P301L (four-repeat tau fragment), heparin-induced fibrillization, ThT fluorescence; series mostly up to 57.4 µM; activity, negative = inhibition: at the top concentration. In short, it runs like this: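 Heparin-induced fibrillization of the P301L-mutant K18 repeat-domain fragment of human tau was followed by ThT binding in quantitative high-throughput format.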
UniProt P10636, sequence (P10636 whole entry, looked up, the tested form may be a part): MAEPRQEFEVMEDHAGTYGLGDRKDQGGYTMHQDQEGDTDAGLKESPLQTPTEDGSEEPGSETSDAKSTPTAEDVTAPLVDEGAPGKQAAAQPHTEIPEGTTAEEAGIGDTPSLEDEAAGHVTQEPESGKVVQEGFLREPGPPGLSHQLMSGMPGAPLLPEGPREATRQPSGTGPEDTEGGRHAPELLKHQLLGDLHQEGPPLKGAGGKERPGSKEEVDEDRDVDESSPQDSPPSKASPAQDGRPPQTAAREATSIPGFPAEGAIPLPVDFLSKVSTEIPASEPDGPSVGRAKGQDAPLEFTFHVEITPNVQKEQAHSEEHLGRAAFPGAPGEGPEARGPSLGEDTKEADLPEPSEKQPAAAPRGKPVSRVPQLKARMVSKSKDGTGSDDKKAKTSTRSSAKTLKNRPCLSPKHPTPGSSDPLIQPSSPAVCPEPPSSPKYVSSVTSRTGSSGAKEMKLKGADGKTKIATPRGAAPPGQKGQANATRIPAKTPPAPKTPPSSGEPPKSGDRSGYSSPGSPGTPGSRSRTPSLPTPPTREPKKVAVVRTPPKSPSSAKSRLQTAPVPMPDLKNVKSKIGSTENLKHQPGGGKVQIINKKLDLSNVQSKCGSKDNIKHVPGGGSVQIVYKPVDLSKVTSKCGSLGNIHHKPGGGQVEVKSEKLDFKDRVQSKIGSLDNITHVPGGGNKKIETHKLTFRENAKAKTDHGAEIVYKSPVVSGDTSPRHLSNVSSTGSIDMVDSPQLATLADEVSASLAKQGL
In general terms: qHTS replaces the single test concentration by a dilution series.
`CC1(OC(=O)CCc2ccccc2)C(=O)C=C2C=C(c3ccc(C#N)cc3)N(CC3CC3)C=C2C1=O` (stereo not given): the activity, negative = inhibition is inactive: -5.87% [at 11.5 µM]. In the case of `Cc1cccc(COC[C@H](Cc2ccccc2)N2CCN(C(=O)c3cccc(Cl)c3)CCC2=O)c1`, the “activity, negative = inhibition” value is inactive: -12.2%. On to `CCc1cc(SC#N)cc(C)c1N`, for which the Potency was active: 14.1 µM. For `CC(=O)OC/C=C(C)/C=C/C=C(C)/C=C/C1=C(C)CCCC1(C)C`, the “activity, negative = inhibition” value is inactive: -7.27%. `Cc1ccc2[nH]c(=O)c3cc(C(=O)N(CCCOC(C)C)Cc4ccco4)sc3c2c1`: the “activity, negative = inhibition” value was inactive: -13.7%. `Nc1nonc1C(=O)NCCN=Cc1cc(Cc2ccccc2)cc(Br)c1O`: the Potency was active: 28.2 µM.

Turning to `N=C1C=CC=C2C1=NC1(CCCCC1)N2O`, the Potency is active: 25.1 µM.

`Oc1ccccc1N=Nc1nc(-c2ccccc2)c(-c2ccccc2)[nH]1`: the Potency is active: 4.47 µM.

Take `Cc1ccc(S(=O)(=O)N2CCC(=O)N(CCOCc3ccc(C(F)(F)F)cc3)CC2)cc1`: the “activity, negative = inhibition” value was inactive: -4.47%. Still for that read-out and setting: in the case of `COC(=O)CCC(=O)OC1(C)C(=O)C=C2C=C(c3ccc(C#N)cc3)OC=C2C1=O` (stereo not given) it was inactive: -2.42%.

For `CN(C)CCCN1c2ccccc2CCc2ccc(Cl)cc21`, the Potency result was “inactive”.

For `O=C(c1cc2c(s1)-c1ccccc1OC2)N1CCN(c2ccccc2)CC1`, the “activity, negative = inhibition” value was inactive: 0.866%. Same read-out and setting: in the case of `COc1cc2c(cc1O)CC[C@@H]1[C@@H]2CC[C@]2(C)[C@@H](O)CC[C@@H]12` it was inactive: -11.8%; in that of `COc1ccc(-c2[nH]c(-c3cccc(OC)c3)nc2SCC(=O)NC2CCCC2)cc1`, inactive: -3.28%.

In the case of `Clc1ccc(-c2ccc(/C=N/Nc3nncc(-c4ccccc4)n3)o2)cc1`, the Potency is active: 2.24 µM.

Take `N[C@H]1CCN(O)C1=O`: the “activity, negative = inhibition” value is inactive: -15.9%. Take `CC(=O)OC1CC2C(C)(C)C(=O)C=C[C@]2(C)C2CC[C@@]3(C)C(c4ccoc4)OC(=O)C4O[C@@]43[C@]12C` (stereo not given in full): the “activity, negative = inhibition” value was inactive: -15.4%. Still for that read-out and setting: as for `COc1ccc(N2C=C3C(=O)C(C)(OC(=O)CCc4ccccc4)C(=O)C=C3C=C2c2ccc(C#N)cc2)cc1` (stereo not given), the figure is inactive: -3.14% [at 11.5 µM]. `Oc1cc(-c2ccccc2)c2ccccc2c1`: the Potency is active: 14.1 µM. Regarding `CC(N)(Cc1ccc(O)cc1)C(=O)O` (stereo not given), the “activity, negative = inhibition” value is inactive: -0.293%. For the molecule `Cc1cc(-c2ccccc2)nc(N/N=C/c2ccc([N+](=O)[O-])cc2)n1`, the Potency is active: 7.08 µM.

With `COc1ccc(/C=N/Nc2ccc(C(=O)O)cc2)cc1Br`, the Potency is active: 7.08 µM. Still for that read-out and setting: in the case of `CC(C)C[C@H](NC(=O)[C@@H](O)[C@H](N)Cc1ccccc1)C(=O)O` it was “inactive”; in that of `CCCCCCN(CCCCCC)C(=O)Cc1c(-c2ccc(F)cc2)[nH]c2ccccc12`, “inactive”. With `CC(=O)NNC(=O)N1Cc2ccccc2Oc2ccc(Cl)cc21`, the “activity, negative = inhibition” value is inactive: -12.2%. As to `COC(=O)[C@@H]1CC[C@H](C)[C@@H](c2ccc(C)cc2)N1C(=O)c1ccc(/C=N\O[C@@H](C)c2cn([C@H](CO)Cc3ccccc3)nn2)cc1`, the activity, negative = inhibition is inactive: -5.22% [at 11.5 µM] and inactive: -10.4% [at 11.5 µM]. Regarding `Cc1ccc2[nH]c(-c3cccc(N)c3)cc2c1`, the Potency is active: 10 µM. The same measure, in the same setting: in the case of `CN(C)c1ccc(/C=N/NC(=O)c2ccc(Cn3cc(Br)cn3)o2)cc1` it was active: 12.6 µM. Turning to `C=C1/C(=C\C=C2/CCC[C@]3(C)[C@@H]([C@H](C)CCCC(C)(C)O)CC[C@@H]23)C[C@@H](O)C[C@@H]1O`, the “activity, negative = inhibition” value is inactive: -3.33%.

Regarding `CC(C)(C)[C@@H]1C=C(C(=O)N2CCN(Cc3ccccc3)CC2)O[C@H](OCCCCO)C1`, the “activity, negative = inhibition” value is inactive: -3.15%. For `C/C(=N\NC(=O)c1cc2ccccc2cc1O)c1ccc2c(c1)OCO2`, the Potency is active: 7.08 µM. On the same count and under the same terms, as for `CCOC(=O)CN1C(=O)N[C@@H](c2ccc(Br)cc2)C(C(C)=O)=C1C`, the entry is “inactive”; as for `CNCCC=C1c2ccccc2CCc2ccccc21`, “inactive”; as for `Cc1ccc2scc(N3CCc4ccccc4C3)c(=O)c2c1`, active: 7.08 µM. Take `CC1OC(OCC2OC(Oc3c(-c4ccc(O)c(O)c4)oc4cc(O)cc(O)c4c3=O)C(O)C(O)C2O)[C@@H](O)C(O)C1O` (stereo not given in full): the “activity, negative = inhibition” value was inactive: -13.3%. For the molecule `Cc1cc(C)c2oc(C(=O)Nc3ccc(S(=O)(=O)N4CCC(C)CC4)cc3)cc(=O)c2c1`, the “activity, negative = inhibition” value is inactive: 3.17%. The same measure, in the same setting: as for `FC(F)(F)c1cc(CO[C@H]2CCCN[C@H]2c2ccccc2)cc(C(F)(F)F)c1`, the figure is inactive: -10.4%; as for `COC(=O)C1=C(C(=O)OC)[C@@H]2N(C)c3ccccc3[C@@]23C[C@@H](C(=O)OC)N(C(=O)c2cc(C)oc2C)C3=N1`, inactive: -9.6% [at 11.5 µM]. On the same count and under the same terms, as for `CCC(=O)/C=C1\Sc2ccccc2N1CC`, the figure is inactive: 0.567%. On the same count and under the same terms, in the case of `FC(F)(F)c1ccc(C2[C@H]3CN(Cc4cccnc4)[C@H](c4ccccc4)C34CC2(c2ccccc2)C4)cc1` (stereo not given in full) it was inactive: -4.34%; in that of `O=C(Nc1cccnc1)c1cc(-c2ccc(Cl)cc2)on1`, inactive: -10.4%.

Turning to `CCCCCCCCCCCCCCC[C@@H](O)[C@@H](N)CO`, the Potency entry was “inactive”. Turning to `CCC1=C(OC(=O)N(CC)CC)N2C(=O)OC(=NCCc3c[nH]c4ccccc34)[C@]2(C)[C@H]2C1=CC[C@H]1C(=O)N(CC)C(=O)[C@H]12`, the “activity, negative = inhibition” value is inactive: -5.72%. On to `Cc1cc(C)c2c(c1)/C(=C/C(=O)c1ccc(Br)s1)C(=O)N2`, for which the Potency is active: 28.2 µM.

Consider `Nc1ccccc1C#CCCCCO`, for which the “activity, negative = inhibition” value is inactive: -8.65%.

With `CCCCC1=CC2=CC(=O)C(C)(OC(=O)CC)C(=O)C2=CN1CCN1CCOCC1` (stereo not given), the activity, negative = inhibition was inactive: 4.47% [at 11.5 µM]. Still for that read-out and setting: in the case of `CC(=O)C1=C(C)N(Cc2ccccc2)C(=O)N[C@H]1c1ccco1` it was inactive: -10.5%; in that of `COc1cc2c(cc1OC)C1C(=O)c3ccc4c(c3OC1CO2)C=CC(C)(C)O4` (stereo not given), inactive: -20.8%. Same read-out and setting: in the case of `O=C1c2c(O)cc(O)cc2OC(c2ccc(O)c(O)c2)C1O` (stereo not given) it was inactive: -3.18%. `CC1=CC(C)(C)n2c(O)c(N=N)c3c(C)c(C)cc1c32`: the Potency was active: 25.1 µM. Take `O=C(NCCc1c[nH]c2ccccc12)[C@H]1C[C@@H]1[C@H](NP(=O)(c1ccccc1)c1ccccc1)c1ccccc1`: the “activity, negative = inhibition” value is inactive: -18%. On the same count and under the same terms, as for `O=C(CCSCc1cccc(Cl)c1)NCCc1ccc(Cl)cc1`, the figure is inactive: 1.04%; as for `O=C(O)/C=C/C(=O)Nc1ccc(-c2ccccc2)cc1`, inactive: -10.5%; as for `Cc1cccc(N2CCN(C(=O)C(C)n3nc(C)n4c(cc5occc54)c3=O)CC2)c1C` (stereo not given), inactive: -17.5%. For `CC/C(=C(\c1ccccc1)c1ccc(OCCN(C)C)cc1)c1ccccc1`, the Potency result was “inactive”. As for `CCO[C@@H]1OC(C(=O)O)=C[C@H](C2CCCCC2)[C@H]1CCCO`, the “activity, negative = inhibition” value was inactive: 0.0576%. Same read-out and setting: as for `COc1ccc(COc2cc(-c3cccc(OC)c3)nc3ccc(NC(=O)c4ccc(C)cc4)cc23)cc1`, the figure is inactive: -5.72%; as for `CC1(C(=O)NCCc2c[nH]c3ccccc23)C=CCN1C(=O)c1ccccc1` (stereo not given), inactive: -2.72%; as for `COc1ccc(NC(=O)CN(C)S(=O)(=O)c2ccc3c(c2)CCC(=O)N3)c(OC)c1`, inactive: -14.4%. For the molecule `COc1cc(/C=C2\SC(=S)N(Nc3ccccc3)C2=O)ccc1O`, the Potency was active: 11.2 µM. As to `Cc1ccc(S(=O)(=O)N2CCC(=O)N([C@H](COCc3ccc(C(F)(F)F)cc3)Cc3ccccc3)CC2)cc1`, the “activity, negative = inhibition” value is inactive: -13.8%.

Turning to `CC[C@@H]1/C=C(\C)C[C@H](C)C[C@H](OC)[C@H]2O[C@@](O)(C(=O)C(=O)N3CCCC[C@H]3C(=O)O[C@H](/C(C)=C/[C@@H]3CC[C@@H](O)[C@H](OC)C3)[C@H](C)[C@@H](O)CC1=O)[C@H](C)C[C@@H]2OC`, the “activity, negative = inhibition” value is inactive: -9.48%. Take `COc1ccc2c(c1)C(=NN)c1cc(OC)ccc1-2`: the Potency was active: 10 µM. Regarding `C#CCCCO/N=C1/C[C@@H](O)[C@@H](O)[C@@H]2[C@@H]3C(=O)N(Cc4ccccc4)C(=O)[C@H]3CC[C@H]12`, the activity, negative = inhibition is inactive: 5.28% [at 11.5 µM]. Still for that read-out and setting: in the case of `COc1ccc2cc1Oc1ccc(cc1)CC1c3c(cc4c(c3Oc3cc5c(cc3OC)CCN(C)C5C2)OCO4)CCN1C` (stereo not given) it was inactive: -20.5%; in that of `COC(=O)[C@H](COC(C)(C)C)NC(=O)O[C@H]1C(=O)c2cc(OC)ccc2O[C@@H]1c1ccc(OC)c(Br)c1`, inactive: -7.92%; in that of `O=C1CCc2ccc(OCCCCN3CCN(c4cccc(Cl)c4Cl)CC3)cc2N1`, inactive: -17.3%.

For `O=C(NCCO)/C(=C\c1ccc2c(c1)OCO2)NC(=O)c1ccc(Br)cc1`, the “activity, negative = inhibition” value was inactive: -4.81%.

As for `CN1CCC(=C2c3ccccc3CCc3sccc32)CC1`, the Potency entry is “inactive”. Regarding `COC(=O)CCC(=O)OC1(C)C(=O)C=C2C=C(C3CC3)N(C3CCCCC3)C=C2C1=O` (stereo not given), the activity, negative = inhibition is inactive: -6.11% [at 11.5 µM]. As to `COc1ccc(N2C(=O)C(Cl)=C(N3CCCC(C)C3)C2=O)cc1` (stereo not given), the Potency is active: 15.8 µM. In the case of `COC(=O)[C@H](Cc1ccccc1)NC(=O)[C@@]1(C)C[C@@H]1[C@@H](NC(=O)OCc1ccccc1)c1ccccc1`, the “activity, negative = inhibition” value is inactive: -16.3%.

`C#CCN(C)CCCOc1ccc(Cl)cc1Cl`: the “activity, negative = inhibition” value is inactive: -14.2%. `Oc1cc2c(c(Cl)c1O)CCNCC2c1ccccc1` (stereo not given): the Potency entry is “inactive”. As for `CC(C)=CCC/C(C)=C/CC/C(C)=C/CC/C(C)=C/CO`, the “activity, negative = inhibition” value was inactive: -24.5%.

With `COc1ccccc1N1CCN(CCCNc2cc(=O)n(C)c(=O)n2C)CC1`, the Potency result was “inactive”. On the same count and under the same terms, as for `CCSc1ncc(/C=N/Nc2ccc(Cl)cc2)n1C`, the figure is active: 7.94 µM; as for `COc1ccc(N/C=C\C(=O)c2ccc(C)cc2)cc1OC`, active: 10 µM.

As to `COc1ccc(CCCc2nnc(SCC(=O)Nc3cccc(C)c3)o2)cc1`, the “activity, negative = inhibition” value was inactive: -16.1%.

Take `CC1(C)Oc2ccc3ccc(=O)oc3c2C[C@H]1O`: the “activity, negative = inhibition” value is inactive: 3.12%.

On to `CC[C@@H](C)[C@H]1O[C@]2(CC[C@@H]1C)C[C@@H]1C[C@H](C/C=C(/C)[C@H](O[C@@H]3C[C@H](OC)[C@H](O[C@@H]4C[C@H](OC)[C@@H](O)[C@H](C)O4)[C@H](C)O3)[C@@H](C)/C=C\C=C3CO[C@@H]4[C@H](O)C(C)=C[C@@H](C(=O)O1)[C@]34O)O2` (tested in a mixture with another compound), for which the “activity, negative = inhibition” value is inactive: 4.76%.

`CC1CCCC(C)N1C(=O)Cn1cc(/C=C2/C(=O)Nc3ccccc32)c2ccccc21` (stereo not given): the Potency was active: 14.1 µM. Same read-out and setting: in the case of `CC(=O)N1CCN(c2ccc(NCc3ccc(C(C)C)cc3)cc2)CC1` it was active: 12.6 µM. As to `CCCCCC(=O)O[C@@]1(C(C)=O)CCC2C3CCC4=CC(=O)CC[C@@]4(C)C3CC[C@]21C` (stereo not given in full), the “activity, negative = inhibition” value was inactive: -17.6%. On the same count and under the same terms, as for `Cc1cc(C)c(NC(=O)Cn2cnc3c(oc4ccccc43)c2=O)c(C)c1`, the figure is inactive: -8.95%.

(Values after PubChem BioAssay AID1460 (National Center for Advancing Translational Sciences (NCATS), 2008).)
